Assay results taken from PubChem BioAssay AID651820 (National Center for Advancing Translational Sciences (NCATS), 2012).
The whole screen tested about 340,000 compounds, of which about 12,000 (3.5%) were called active. The inconclusive results got no clear call from the source; some entries with a clear call stand among them for comparison. Calls follow the shape of the dose curve; as a rule, active = well fitted inhibition curve with a large enough effect; inconclusive = small, poorly fitted or top-dose-only effect, or another doubt; inactive = no such curve, though single readings can be large or run the other way. No potency is given beside an inconclusive call; the fits are too rough.

experiment: qHTS Assay for Inhibitors of Hepatitis C Virus (HCV); details: Huh7.5.1 HCVcc-Cre (HCVcc is cell-culture hepatitis C virus) infection, luciferase reporter, 44 h; activity change, negative = inhibition: at 41.8 µM (top of the series) unless noted
Summary of the method: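 Antiviral activity was scored by luciferase reporter output from cells infected with HCVcc-Cre (~0.5 moi) in presence of compound, 44 h infection period, cells seeded 1,000/well 4 h prior.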
% is scaled to controls: 0 for no effect and ±100 for the full control effect; potency is read from the fitted curve at half-maximal effect; tags tell the direction and shape of the fitted curve.

Structure (SMILES) | Potency | activity change, negative = inhibition
Cc1ccc(NC(=O)CN(C)Cc2cccs2)cc1Cl | inactive | 
Cc1ccc(C(=O)CSC2=C(C#N)C(c3ccco3)C3=C(CC(C)(C)CC3=O)N2)cc1 (configuration not stated) | inconclusive [inhibitor, full curve, poor fit] | 
Cc1c(Cl)cccc1NC(=O)CC(C(=O)O)C1CCCO1 (configuration not stated) | inconclusive [inhibitor, single point] | 
O=C(CSc1nc2ccsc2c(=O)n1-c1ccccc1)N1CCCC1 | inconclusive [inhibitor, single point] | 
COc1ccccc1NC(=O)c1oc2ccc(C)cc2c1C | inactive | 
CCN(CC)c1ccc(-c2nn3c(-c4n[nH]c5c4CCC5)nnc3s2)cc1 | active: 7.94 µM | 
C=CCOc1ccc(C(=O)c2ccccc2)c(OCC(=O)NC2(C#N)CCCC2)c1 | inconclusive [inhibitor, single point] | 
O=C(CSc1nnc(Cc2cccs2)n1C1CCCCC1)N1CCN(C(=O)c2ccco2)CC1 | inconclusive [inhibitor, single point] | 
CCCCCC(=O)O[C@]1(C(C)=O)CC[C@H]2[C@@H]3CCC4=CC(=O)CC[C@]4(C)[C@H]3CC[C@@]21C | inconclusive [inhibitor, full curve] | 
CCCNC1=C(C)C(=O)C2=C(C1=O)C(COC(N)=O)[C@]1(OC)C3NC3CN21 (some centres not stated) | inconclusive [inhibitor, partial curve, poor fit] | 
O=C(Nc1nc2ccccc2s1)C1c2ccccc2Oc2ccccc21 | inconclusive [inhibitor, single point] | 
Oc1cc2c(cc1O)CN(C(=S)NCCc1ccc(Cl)cc1)CCC2 | inconclusive [inhibitor, single point] | 
Cc1ccc(Cn2nc(C)c(NC(=O)c3cc(-c4ccc5c(c4)OCO5)on3)c2C)cc1 | inconclusive [inhibitor, partial curve] | 
Cn1nnc2cc(C(=O)NC3CCCCC3)ccc21 | inconclusive [inhibitor, full curve] | 
O=C1CCC(=O)N1Cc1c(Cl)cccc1Cl | inactive | 
O=C(NCc1ccc(F)cc1)C1CCCN(S(=O)(=O)c2ccc(Br)s2)C1 (configuration not stated) | inactive | 
COc1cc(Cl)c(C)cc1NC(=O)Cc1ccc(OC)c(OC)c1 | inconclusive [inhibitor, single point] | 
O=S(=O)(c1ccc(C2CCCCC2)cc1)N1CCOCC1 | inactive | 
COc1cccc(-c2nc(NCc3ccccc3)c3ccccc3n2)c1O | inconclusive [inhibitor, partial curve] | 
O=C(CN(c1cccc(C(F)(F)F)c1)S(=O)(=O)c1ccc(Cl)c([N+](=O)[O-])c1)NCc1ccccc1 | inconclusive [inhibitor, single point] | 
CCCCC(=O)Nc1ccc(NC(=O)c2ccccc2[N+](=O)[O-])cc1OC | inconclusive [inhibitor, partial curve, poor fit] | 

Structure (SMILES) | Potency | activity change, negative = inhibition
CC(=O)Oc1ccc(N(C(C)=O)S(=O)(=O)c2ccc(C)cc2C)c2ccccc12 | inconclusive [inhibitor, single point] | 
CC(=O)Nc1nc(-c2ccccc2)cc(-c2ccco2)c1C#N | inconclusive [inhibitor, partial curve] | 
CCN(CC(=O)NCc1cccs1)C(=O)/C=C/c1cccc(Br)c1 | inactive | 
Cc1ccc(S(=O)(=O)N2[C@@H](c3cccc(C)c3)C(C(=O)O)=C[C@H]2CC2CCCC2)cc1 |  | inactive: 15.5% [at 8.37 µM]
CC(=O)c1ccc(N2CCN(C(=O)CNS(=O)(=O)c3ccc4c(c3)OCCCO4)CC2)c(F)c1 | inconclusive [inhibitor, single point] | 
O=C(CSc1nnc(-c2cccnc2)n1-c1ccccc1)NCc1ccc2c(c1)OCO2 | inactive | 
Cc1ccc(Nc2nnns2)cc1C | inactive | 
CC(=O)c1ccc(NC(=O)c2ccc(NC(=O)c3ccco3)cc2)cc1 | inconclusive [inhibitor, partial curve] | 
CCCC(=O)N(CC(=O)Nc1sc(C)c(C)c1C(N)=O)Cc1ccccc1 | inconclusive [inhibitor, single point] | 
O=[N+]([O-])c1ccc(O)c(N=Cc2sc3ccccc3c2O)c1 | inconclusive [inhibitor, single point] | 
CCOCCCNC(=O)/C(C#N)=C/c1ccc([N+](=O)[O-])o1 | inconclusive [inhibitor, single point] | 
CCCc1cc(N2CCN(c3ccccn3)CC2)n2nc(C)c(-c3ccccc3)c2n1 | inconclusive [inhibitor, full curve, poor fit] | 
CCc1cccc(C)c1NC(=S)NCc1ccccc1 | inconclusive [inhibitor, full curve] | 
CCN(CCCNS(=O)(=O)c1ccc2c(c1)oc(=O)n2C)c1cccc(C)c1 | inconclusive [inhibitor, full curve, poor fit] | 
O=C(NCc1ccc(F)cc1)C(=O)Nc1nc(C23CC4CC(CC(C4)C2)C3)cs1 | inconclusive [inhibitor, partial curve] | 
COc1cc(C#Cc2c(-c3cncn3C)n(C)c3ccc(-c4ccc5[nH]ccc5c4)cc23)cc(OC)c1 | inconclusive [inhibitor, single point] | 
COc1ccc(C(=O)CSc2nc(C)cc(=O)[nH]2)cc1C | inactive | 
NC(=O)NC(=O)CSc1nnc(-c2ccc(Cl)cc2)n1CC1CCCO1 (configuration not stated) | inactive | 
COc1ccc(C(=O)Nc2cc(C)nc3ccccc23)cc1OC | inconclusive [inhibitor, full curve] | 
Cc1cccc(Nc2nc(N)c([N+](=O)[O-])c(NCc3ccco3)n2)c1 | inconclusive [inhibitor, full curve] | 
CCN1CCN(Cc2cc(=O)oc3cc4c(cc23)CCC4)CC1 | inconclusive [inhibitor, full curve] | 
